Results published in paper PMC4336329 (PLoS ONE, 2015).
Among all 310,000 compounds or so, about 14,000 (4.5%) showed an effect of 50% or more. Effects have a minus sign here. The list shows a part of the results.

target: human ether-à-go-go-related gene (hERG) potassium channel (human, UniProt Q12809); experiment: primary screen, population patch clamp on CHO cells stably expressing hERG
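Note: peak tail current of the secondary pulse compared with the same well before compound.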

Chain of human ether-à-go-go-related gene (hERG) potassium channel (Q12809 whole entry, looked up): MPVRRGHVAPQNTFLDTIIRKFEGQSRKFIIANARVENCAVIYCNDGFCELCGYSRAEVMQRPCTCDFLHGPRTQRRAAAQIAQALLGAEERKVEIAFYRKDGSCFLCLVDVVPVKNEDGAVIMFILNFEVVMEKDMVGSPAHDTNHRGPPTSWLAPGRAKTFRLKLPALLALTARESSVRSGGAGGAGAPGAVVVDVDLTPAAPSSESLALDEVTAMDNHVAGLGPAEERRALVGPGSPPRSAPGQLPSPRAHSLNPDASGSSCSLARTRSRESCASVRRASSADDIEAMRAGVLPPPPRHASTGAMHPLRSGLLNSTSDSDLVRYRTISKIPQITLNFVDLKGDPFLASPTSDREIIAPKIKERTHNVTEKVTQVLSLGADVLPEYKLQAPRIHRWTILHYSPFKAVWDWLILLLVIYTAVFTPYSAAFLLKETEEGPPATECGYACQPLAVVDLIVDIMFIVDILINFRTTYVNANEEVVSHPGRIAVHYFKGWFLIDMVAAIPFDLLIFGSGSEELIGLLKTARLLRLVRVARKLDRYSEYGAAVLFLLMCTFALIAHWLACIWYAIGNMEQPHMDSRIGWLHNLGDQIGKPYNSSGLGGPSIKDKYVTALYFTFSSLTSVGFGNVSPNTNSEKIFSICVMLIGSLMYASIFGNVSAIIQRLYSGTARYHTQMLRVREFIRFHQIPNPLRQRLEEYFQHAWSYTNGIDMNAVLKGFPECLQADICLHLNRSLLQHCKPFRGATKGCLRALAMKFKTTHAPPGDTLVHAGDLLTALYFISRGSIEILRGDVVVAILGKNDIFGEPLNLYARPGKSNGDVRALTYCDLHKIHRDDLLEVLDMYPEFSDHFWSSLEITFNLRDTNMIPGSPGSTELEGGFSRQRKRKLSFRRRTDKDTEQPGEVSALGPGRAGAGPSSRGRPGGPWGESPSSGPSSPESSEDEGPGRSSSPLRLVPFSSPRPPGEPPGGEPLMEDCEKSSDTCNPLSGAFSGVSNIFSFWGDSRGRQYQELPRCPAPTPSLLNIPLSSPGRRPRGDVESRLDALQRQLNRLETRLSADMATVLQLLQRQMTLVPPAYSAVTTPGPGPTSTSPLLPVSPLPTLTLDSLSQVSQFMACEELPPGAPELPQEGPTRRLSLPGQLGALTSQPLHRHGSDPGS

Structure (SMILES) | hERG current change (%, negative = inhibition) at 10uM [%]
C=CCOc1c(CNc2ncn[nH]2)cccc1OC | 9.23
COc1ccccc1NC(=O)c1sc2nc(N3CCOCC3)c3c(c2c1N)CCCC3 | 15.2
Cc1cccc(NC(=O)CSc2nnc(NC(=O)C3CC3)s2)c1C | 3.63
O=C(Nc1cc(Sc2ccccn2)cc([N+](=O)[O-])c1)c1ccc([N+](=O)[O-])cc1 | -6.06
COc1cc(C(=O)N2CCN(C(=O)C(Cc3cc(C)ccc3C)NC(C)=O)CC2)cc(OC)c1OC (stereo not shown) | -14.4
Cn1c(SCC(=O)Nc2nc(C(C)(C)C)cs2)nnc1C1CC1 | -24.4
CC(C(=O)N1CCc2ccccc21)N1CCN(S(=O)(=O)c2cccs2)CC1 (stereo not shown) | -28.8
CN(C(=O)CSc1ncnc2sccc12)C1CCS(=O)(=O)C1 (stereo not shown) | 5.34
CC(=O)Nc1ccc(N/C=C/C(=O)c2ccc(Br)cc2)cc1 | 18.3
CCC(C)CNC(=O)c1cccc(OC2CCN(CC(C)(C)C)CC2)c1 (stereo not shown) | -7.71
O=C(COC(=O)c1ccco1)c1ccc(F)cc1 | 15.2
Cc1ccccc1CSc1nnc(C)c(=O)n1N | 12.3
CC(=O)c1c(C)n(-c2ccccc2)c2ccc(OCC(N)=O)cc12 | 16.5
Brc1c(CSc2nnc(-c3ccco3)o2)nc2ccccn12 | -47.3
Cc1nn(-c2ccccc2)c(N2CCCC2)c1/C=N/NC(=O)c1cc(-c2ccccc2)nc2ccccc12 | 13.3
CCOc1ccc(-c2cc(C(=O)NCC3CCCO3)c3ccccc3n2)cc1 (stereo not shown) | -7.94
C[C@@H](C(=O)NCc1ccc(S(C)(=O)=O)cc1)[C@@H]1C[C@@]1(C)[C@@H](NC(=O)OCc1ccccc1)c1ccccc1 | -75.1
Cc1ccc(C(=O)NCCSc2ccc(Cl)cc2)cc1[N+](=O)[O-] | -17
O=C(NCc1ccccc1)N1CCC(Cc2ccccc2)CC1 | 10.5
COc1ccc(NC(=O)C2CC(c3ccc(Cl)cc3)=NO2)cc1 (stereo not shown) | 5.65
NS(=O)(=O)c1ccc(CCNC(=O)CSc2nc3ccccc3c(=O)n2CC2CCCO2)cc1 (stereo not shown) | -43.1
CCNc1nc(NCC)n2c(SCC(=O)NC34CC5CC(CC(C5)C3)C4)nnc2n1 | -11.3
Cc1c(C(=O)N2CCC3(CC2)OCCO3)oc2ccc(S(=O)(=O)N3CCOCC3)cc12 | 6.5
O=C(CCCc1c[nH]c2ccccc12)N[C@@H](Cc1c[nH]c2ccccc12)C(=O)O | 18.9
COc1ccc(C(=O)C2CCCN(Cc3cccn3-c3nccs3)C2)cc1OC (stereo not shown) | -82
FC(F)(F)c1nc2ccccc2c2nc3ccccc3n12 | 25.4
C[C@H]1CN=C(N(C)C)N1CC1CCCC1 | 7.36
COC(=O)N1C(c2ccccc2)C1c1ccccc1 (stereo not shown) | 19.1

Structure (SMILES) | hERG current change (%, negative = inhibition) at 10uM [%]
COc1ccc(OC)c(C2C(C(N)=O)=C(C)Nc3nc(-c4cccc(Cl)c4)nn32)c1 (stereo not shown) | -26.7
CC(C)CC(NC(=O)C1CCC(C)CC1)C(=O)NCc1ccccn1 (stereo not shown) | 18
COc1ccc(-c2[nH]ncc2-c2ccc(Cl)cc2)c(O)c1 | 2.36
CCOc1ccc(-n2ccc(=O)c(C(=O)Nc3ccc(S(=O)(=O)Nc4ncccn4)cc3)n2)cc1 | 7.22
O=C(Nc1cccc([N+](=O)[O-])c1)c1ccc(CN2CCOCC2)cc1 | -17.5
O=S(=O)([N-]c1nc2ccccc2nc1-[n+]1ccccc1)c1ccc(Cl)cc1 | -10.5
CCn1cc(C(=O)OCC(=O)Nc2c(C)n(C)n(-c3ccccc3)c2=O)c(=O)c2ccc(C)nc21 | -5.21
CCCc1nccn1S(=O)(=O)c1cc(OC)ccc1OC | -7.88
CCCS(=O)(=O)N1CCC(C(=O)NCc2ccc(F)cc2)CC1 | -9.89
O=C(CSC1=NS(=O)(=O)c2cc(Cl)ccc2N1)NCCc1ccccc1 | 15.4
Nc1nnc(C(F)(F)F)s1 | 9.26
Cc1c([N+](=O)[O-])cc(S(=O)(=O)Nc2ccc(-c3ccc(N4CCCC4)nn3)cc2)cc1[N+](=O)[O-] | 3.05
O=C(CN(C(=O)CCC(=O)Nc1ccccn1)c1cccc(F)c1)NCc1ccc2c(c1)OCO2 | 4.96
Cc1ccc(S(=O)(=O)Nc2nc(C)c(C(=O)Nc3ccccc3)s2)cc1 | 7.58
COC(=O)C1CCCN1C(C(=O)NC1CCCCC1)c1ccc(Cl)cc1 (stereo not shown) | 2.3
CCOc1ccc(NC(=O)CSc2nnc(Cn3c(=O)sc4ccccc43)n2C)cc1 | -4.3
CCOC(=O)CCNC(=O)N1CCCC(N(C)CCc2ccccc2)C1 (stereo not shown) | -49.4
O=C(Nc1cccc(S(=O)(=O)NC2=NCCC2)c1)c1cc(-c2ccccn2)nc2ccccc12 | 13.8
CN(CC(=O)N1CCCCCC1)S(=O)(=O)c1ccccc1 | 5.25
COc1ccc(C(=O)NCc2ccccn2)cc1 | 9.55
Cc1[nH]n(-c2ccccc2)c(=O)c1/C=N/Nc1nncc(-c2ccccc2)n1 | 6.56
CC(C)CC(=O)Nc1ccccc1N1CCCC1 | 12.4
O=C(Nc1ccccc1F)c1ccncc1 | 24.8
COc1ccc2[nH]c3c(N4CCC(O)(c5cccc(C(F)(F)F)c5)CC4)ncnc3c2c1 | -3.71
S=C(NCc1ccccc1)NC1CCCc2ccccc21 (stereo not shown) | -9.49
Oc1cccc(NC(=S)N=Nc2c(O)[nH]c3ccccc23)c1 | -0.615
CCS(=O)CCSc1nc2ccccc2s1 (stereo not shown) | 7.66
